Data as given in PubChem BioAssay AID504832 (National Center for Advancing Translational Sciences (NCATS), 2011).
Out of some 310,000 compounds screened, about 18,000 (5.8%) were called active. The shares of active, inactive and inconclusive entries below differ from those in the screen. The call rests on the fitted dose curve; in most records, active means well fitted inhibition curve with a large enough effect; inconclusive means small, poorly fitted or top-dose-only effect, or another doubt; inactive means no such curve, though single readings can be large or run the other way. Potencies of inconclusive entries are left out as doubtful fits.

Assay: Primary qHTS for delayed death inhibitors of the malarial parasite plastid, 48 hour incubation
Conditions: P. falciparum luciferase growth in erythrocytes; series mostly up to 28.7 µM; activity change, negative = inhibition: at the top concentration
Method in brief: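 In quantitative HTS format, infected erythrocytes bearing luciferase-reporter parasites were treated for a single generation at 37 C. Luminescence after adding detection reagent served as the growth measure.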
On the % scale 0 is the no-effect control and ±100 the full control effect; potency means the concentration at half of the fitted maximal effect; tags describe the fitted curve by direction and shape.

| Structure (SMILES) | Potency | activity change, negative = inhibition |
| --- | --- | --- |
| CCn1cc(C(=O)O)c(=O)c2cc(F)c(N3CCN(C(=S)NC(=O)c4ccccc4C)CC3)cc21 | inconclusive [inhibitor, partial curve] | – |
| O=C(CN1C(=O)CCS(=O)(=O)c2ccccc21)NCc1ccc2c(c1)OCO2 | – | inactive: -10.2% |
| CS(=O)(=O)N1CCc2cc(C(=O)N3CCCC3)ccc21 | – | inactive: -6.07% |
| Cc1ccc(/C=N/NC(=O)COc2ccccc2-c2ccccc2)cc1 | inconclusive [inhibitor, single point] | – |
| Cc1ccccc1NC(=O)CSc1nc(N2CCCCC2)nc(N2CCCCC2)n1 | inconclusive [inhibitor, full curve] | – |
| COC(=O)c1[nH]c2ccc(Cl)cc2c1NC(=O)CN1CCC(C(N)=O)CC1 | active: 11.7 µM | – |
| COCCCNc1nnc(Cc2ccccc2)c2ccccc12 | inconclusive [inhibitor, partial curve, poor fit] | – |
| Brc1cc2c(cc1Cn1c(-c3cncs3)nc3ccccc31)OCO2 | inconclusive [inhibitor, single point] | – |
| Cc1ccccc1NC(=O)CN1C(=O)NC2(CCc3ccccc32)C1=O (stereo not drawn) | inconclusive [inhibitor, single point] | – |
| COCc1c(C(=O)OCc2nc(N)nc(Nc3ccccc3C)n2)oc2ccccc12 | inconclusive [inhibitor, single point] | – |
| Oc1ccc2ccccc2c1N=Nc1ccc(F)cc1 | inactive | – |
| CC1=CC(C)(C)NC(=S)N1c1cc(C)cc(C)c1 | inconclusive [inhibitor, single point] | – |
| CCOC(=O)C1=C(C)N=C2SCCC(=O)N2C1c1ccc(OC)cc1 (stereo not drawn) | – | inactive: -14.6% |
| O=C(NCc1ccco1)c1ccc(N2CCCCC2)c([N+](=O)[O-])c1 | active: 8.28 µM | – |
| COc1cc(NC(=O)CSc2ccc(-c3cccnc3)nn2)cc(OC)c1 | – | inactive: -21.3% |
| Cc1cc(OCC(=O)NCc2cccnc2)c2c(C)c(Cc3ccccc3)c(=O)oc2c1 | inconclusive [inhibitor, partial curve] | – |
| COc1ccc(OC)c(S(=O)(=O)NCCS(=O)(=O)N2CCN(c3ccccc3)CC2)c1 | inconclusive [inhibitor, single point] | – |
| CCOC(=O)CSc1nc(C2CC2)cc(-c2ccc(Cl)cc2)c1C#N | active: 10.4 µM | – |
| COc1ccc(CNCc2ccc3ccccc3c2)c(OC)c1 | inconclusive [inhibitor, single point] | – |
| O=C(NC1CC(=O)N(c2ccccc2)C1)C1CC1 (stereo not drawn) | – | inactive: -28.4% |
| Cc1ccc(-c2nnc3ccc(SCC(=O)Nc4cc(C)on4)nn23)cc1 | inconclusive [inhibitor, partial curve, poor fit] | – |
| NC1=NC(c2ccc(Cl)cc2)N(c2ccc(S(N)(=O)=O)cc2)C(N)=N1 (stereo not drawn) | inconclusive [inhibitor, partial curve] | – |

| Structure (SMILES) | Potency | activity change, negative = inhibition |
| --- | --- | --- |
| COC(=O)C1=C(C)Nc2nc3ccccc3n2C1c1ccccc1F (stereo not drawn) | inconclusive [inhibitor, partial curve, poor fit] | – |
| COc1ccc(OC)c(C2=NS(=O)(=O)N(C)C(C(=O)Nc3ccc(F)cc3F)=C2)c1 | inconclusive [inhibitor, single point] | – |
| NC(N)=NC(N)=Nc1ccc2ccccc2c1 | inconclusive [inhibitor, single point] | – |
| CC(C)c1ccccc1NC(=O)c1cccc(NC(=O)c2ccccc2)c1 | inconclusive [inhibitor, single point] | – |
| CS/C(=C\[N+](=O)[O-])Nc1ccc(F)cc1 | inconclusive [inhibitor, single point] | – |
| CCCCOc1ccc(-c2nc(/C=N/c3nccs3)c(O)o2)cc1 | – | inactive: 14.7% |
| CCn1c(SCc2nnc(-c3ccccc3)o2)nnc1-c1ccc(S(=O)(=O)N2CCCC2)cc1 | inconclusive [inhibitor, partial curve, poor fit] | – |
| CC#CC(=O)N1CCCC(C(=O)c2ccc(SC)cc2)C1 (stereo not drawn) | inconclusive [inhibitor, partial curve, poor fit] | – |
| CC1CCN(c2c(NCC3CCC(C(=O)NCc4ccc(F)cc4)CC3)c(=O)c2=O)CC1 (stereo not drawn) | inconclusive [inhibitor, partial curve, poor fit] | – |
| COc1ccc(S(=O)(=O)Nc2cc3c4c(c2)CCC(=O)N4CCC3)cc1C | inconclusive [inhibitor, single point] | – |
| Cc1c(NS(=O)(=O)c2cc(C(=O)NCCc3ccc(F)cc3)cc(Cl)c2Cl)c(=O)n(-c2ccccc2)n1C | – | inactive: -17% |
| CCNC(=S)N/N=C/c1c(C)nn(-c2cccc(Cl)c2)c1Cl | inconclusive [inhibitor, single point] | – |
| NNC(=O)c1[nH]c2ccccc2c1-c1ccccc1 | inconclusive [inhibitor, partial curve] | – |
| COc1ccc([C@H]2CC(=O)C=C(c3ccc(C)c4ccccc34)C2)cc1 | inconclusive [inhibitor, single point] | – |
| C[C@@H]1C(SC2Cn3cnc[n+]3C2)=C(C(=O)[O-])N2C(=O)[C@H]([C@@H](C)O)[C@@H]12 (stereo partly drawn) | – | inactive: -11.6% |
| CCOc1ccccc1NC(=O)CC1Nc2cc(C)c(C)cc2NC1=O (stereo not drawn) | inconclusive [inhibitor, full curve] | – |
| O=C(NC1(C(F)(F)F)NC(=O)N(Cc2ccco2)C1=O)c1cccnc1 (stereo not drawn) | – | inactive: 4.22% |
| O=C(C1CCCO1)N1CCN(C(c2ccccc2)c2ccccc2)CC1 (stereo not drawn) | inconclusive [inhibitor, single point] | – |
| COc1cccc([C@@H]2Oc3ccc(OC)cc3C(=O)[C@H]2OC(=O)NCc2ccc3c(c2)OCO3)c1 | inconclusive [inhibitor, single point] | – |
| CC1(C)CC(=O)C2=C(C1)NC1=C(C(=O)c3ccccc31)C2c1ccc(Cl)cc1 (stereo not drawn) | inconclusive [inhibitor, single point] | – |
| Cc1ccc(C(NC(=O)NC(C)c2ccccc2)C(Cl)(Cl)Cl)cc1F (stereo not drawn) | active: 4.15 µM | – |
